Reference: US6534546B1 (Chugai Seiyaku Kabushiki Kaisha, priority 1994, dated 2003)

Experiments:
N-cNOS (Type 1) [1] = target: T1, N-cNOS (Type 1) (Rattus norvegicus, UniProt P29476); experiment: biochemical
N-cNOS (Type 1) [2] = target: T1, N-cNOS (Type 1); conditions: for Ratio of IC50 values E-cNOS/N-cNOS / Ratio of IC50 values iNOS/N-cNOS: index of selectivity; for selectivity for N-cNOS compared to E-cNOS, compared with the existing NOS inhibitors (L-EIN) / N-cNOS inhibitory potency compared with the existing NOS inhibitors (L-MIN): conclusion from Tables 49, 50 and 51

Structure (SMILES): CCN=C(N)Nc1cccc(C2(N)CCCC2)c1 [Example 236, N-(1-(3-(N′-ethylguanidino)phenyl)cyclopentyl)amine dihydrochloride]
- IC50 (N-cNOS (Type 1) [1]): 56.8 nM
- Ratio of IC50 values E-cNOS/N-cNOS (N-cNOS (Type 1) [2]): 5.7

Structure (SMILES): CCN=C(N)Nc1cccc(C2(N)CCC2)c1.Cl.Cl [Example 238, N-(1-(3-(N′-ethylguanidino)phenyl)cyclobutyl)amine dihydrochloride]
- IC50 (N-cNOS (Type 1) [1]): 63.9 nM
- Ratio of IC50 values E-cNOS/N-cNOS (N-cNOS (Type 1) [2]): 18.2

Structure (SMILES): CCN=C(N)Nc1ccc(N(C)C)c(CN)c1.Cl.Cl.Cl [Example 267, N-(2-dimethylamino-5-(N′-ethylguanidino)phenylmethyl)amine trihydrochloride]
- IC50 (N-cNOS (Type 1) [1]): 99.6 nM
- selectivity for N-cNOS compared to E-cNOS, compared with the existing NOS inhibitors (L-EIN) (N-cNOS (Type 1) [2]): more selective inhibitory effect on N-cNOS than L-EIN
- Ratio of IC50 values E-cNOS/N-cNOS (N-cNOS (Type 1) [2]): 502.8
- Ratio of IC50 values iNOS/N-cNOS (N-cNOS (Type 1) [2]): 48.1

Structure (SMILES): CCSC(=N)Nc1ccc(N(C)C)c(CN)c1.Cl.Cl.Cl [Example 270, N-(2-dimethylamino-5-(S-ethylisothioureido)phenylmethyl)amine trihydrochloride]
- IC50 (N-cNOS (Type 1) [1]): 4.3 nM
- N-cNOS inhibitory potency compared with the existing NOS inhibitors (L-MIN) (N-cNOS (Type 1) [2]): more potent in inhibiting N-cNOS than L-MIN
- selectivity for N-cNOS compared to E-cNOS, compared with the existing NOS inhibitors (L-EIN) (N-cNOS (Type 1) [2]): more selective inhibitory effect on N-cNOS than L-EIN
- Ratio of IC50 values E-cNOS/N-cNOS (N-cNOS (Type 1) [2]): 834.0
- Ratio of IC50 values iNOS/N-cNOS (N-cNOS (Type 1) [2]): 1053.2

Structure (SMILES): CN(C)c1ccc(NC(N)=N[N+](=O)[O-])cc1CN.Cl.Cl [Example 281, N-(2-dimethylamino-5-(N′-nitroguanidino)phenylmethyl)amine dihydrochloride]
- IC50 (N-cNOS (Type 1) [1]): 108 nM
- Ratio of IC50 values E-cNOS/N-cNOS (N-cNOS (Type 1) [2]): 15.0

Structure (SMILES): CCN=C(N)Nc1ccc(N(C)CC)c(CN)c1.Cl.Cl.Cl [Example 285, N-(5-(N′-ethylguanidino)-2-(N-ethyl-N-methyl-amino)phenylmethyl)amine trihydrochloride]
- IC50 (N-cNOS (Type 1) [1]): 199 nM
- Ratio of IC50 values E-cNOS/N-cNOS (N-cNOS (Type 1) [2]): 36.7

Structure (SMILES): CCSC(=N)Nc1ccc(N(C)CC)c(CN)c1.Cl.Cl.Cl [Example 288, N-(5-(S-ethylisothioureido)-2-(N-ethyl-N-methylamino)phenylmethyl)amine trihydrochloride]
- IC50 (N-cNOS (Type 1) [1]): 19.9 nM
- Ratio of IC50 values E-cNOS/N-cNOS (N-cNOS (Type 1) [2]): 63.5

Structure (SMILES): CCSC(=N)Nc1ccc(OC)c(CN)c1OC.Cl.Cl [Example 298, N-(2,6-dimethoxy-3-(S-ethylisothioureido)phenylmethyl)amine dihydrochloride]
- IC50 (N-cNOS (Type 1) [1]): 36.4 nM
- selectivity for N-cNOS compared to E-cNOS, compared with the existing NOS inhibitors (L-EIN) (N-cNOS (Type 1) [2]): more selective inhibitory effect on N-cNOS than L-EIN
- Ratio of IC50 values E-cNOS/N-cNOS (N-cNOS (Type 1) [2]): 113.8

Structure (SMILES): CCN=C(N)Nc1cccc(C(C)(C)N)c1.Cl.Cl [Example 300, N-(1-(3-(N′-ethylguanidino)phenyl)-1-methylethyl) amine dihydrochloride]
- IC50 (N-cNOS (Type 1) [1]): 69.8 nM
- Ratio of IC50 values E-cNOS/N-cNOS (N-cNOS (Type 1) [2]): 7.0

Structure (SMILES): CCN(C)C(=N)Nc1cccc(CN)c1 [Example 305, N-(3-(N′-ethyl-N′-methylguanidino)phenylmethyl)amine dihydrochloride]
- IC50 (N-cNOS (Type 1) [1]): 53.9 nM
- Ratio of IC50 values E-cNOS/N-cNOS (N-cNOS (Type 1) [2]): 31.7

Structure (SMILES): CCSC(=N)Nc1ccc(F)c(CN)c1.Cl.Cl [Example 317, N-(5-(S-ethylisothioureido)-2-fluorophenylmethyl)amine dihydrochloride]
- IC50 (N-cNOS (Type 1) [1]): 12.2 nM
- Ratio of IC50 values E-cNOS/N-cNOS (N-cNOS (Type 1) [2]): 19.6

Structure (SMILES): CCOc1ccc(NC(=N)SCC)cc1CN.Cl.Cl [Example 324, N-(2-ethoxy-5-(S-ethylisothioureido)phenylmethyl) amine dihydrochloride]
- IC50 (N-cNOS (Type 1) [1]): 4.8 nM
- N-cNOS inhibitory potency compared with the existing NOS inhibitors (L-MIN) (N-cNOS (Type 1) [2]): more potent in inhibiting N-cNOS than L-MIN
- selectivity for N-cNOS compared to E-cNOS, compared with the existing NOS inhibitors (L-EIN) (N-cNOS (Type 1) [2]): more selective inhibitory effect on N-cNOS than L-EIN
- Ratio of IC50 values E-cNOS/N-cNOS (N-cNOS (Type 1) [2]): 480.3
- Ratio of IC50 values iNOS/N-cNOS (N-cNOS (Type 1) [2]): 1818.4

Structure (SMILES): CCSC(=N)Nc1ccc(OCc2ccccc2)c(CN)c1.Cl.Cl [Example 337, N-(2-benzyloxy-5-(S-ethylisothioureido)phenylmethyl)amine dihydrochloride]
- IC50 (N-cNOS (Type 1) [1]): 44.8 nM
- selectivity for N-cNOS compared to E-cNOS, compared with the existing NOS inhibitors (L-EIN) (N-cNOS (Type 1) [2]): more selective inhibitory effect on N-cNOS than L-EIN
- Ratio of IC50 values E-cNOS/N-cNOS (N-cNOS (Type 1) [2]): 116.1
- Ratio of IC50 values iNOS/N-cNOS (N-cNOS (Type 1) [2]): 345.4

Structure (SMILES): Cl.NCc1cc(NC(N)=N[N+](=O)[O-])ccc1OCc1ccccc1 [Example 341, N-(2-benzyloxy-5-(N′-nitroguanidino)phenylmethyl)amine hydrochloride]
- IC50 (N-cNOS (Type 1) [1]): 160 nM
- Ratio of IC50 values E-cNOS/N-cNOS (N-cNOS (Type 1) [2]): 5.5

Structure (SMILES): CCSC(=N)Nc1ccc(OC)c(C(C)(C)N)c1 [Example 350, N-(1-(5-(S-ethylisothioureido)-2-methoxyphenyl)-1-methylethyl)amine]
- IC50 (N-cNOS (Type 1) [1]): 106 nM
- selectivity for N-cNOS compared to E-cNOS, compared with the existing NOS inhibitors (L-EIN) (N-cNOS (Type 1) [2]): more selective inhibitory effect on N-cNOS than L-EIN
- Ratio of IC50 values E-cNOS/N-cNOS (N-cNOS (Type 1) [2]): 149.9
- Ratio of IC50 values iNOS/N-cNOS (N-cNOS (Type 1) [2]): 552.5

Structure (SMILES): CCSC(=N)Nc1cccc(CNN)c1.Cl.Cl.Cl [Example 355, 3-(S-ethylisothioureido)phenylmethylhydrazine trihydrochloride]
- IC50 (N-cNOS (Type 1) [1]): 46 nM
- Ratio of IC50 values E-cNOS/N-cNOS (N-cNOS (Type 1) [2]): 14.4

Structure (SMILES): CN=C(N)Nc1cccc(CN)c1.Cl.Cl [Example 367, N-(3-(N′-methylguanidino)phenylmethyl)amine dihydrochloride]
- IC50 (N-cNOS (Type 1) [1]): 193 nM
- Ratio of IC50 values E-cNOS/N-cNOS (N-cNOS (Type 1) [2]): 19.2

Structure (SMILES): CCSC(=N)Nc1cccc(CN(C)C)c1 [Example 372, N-(3-(S-ethylisothioureido)phenylmethyl)dimethylamine]
- IC50 (N-cNOS (Type 1) [1]): 23.6 nM
- Ratio of IC50 values E-cNOS/N-cNOS (N-cNOS (Type 1) [2]): 15.3

Structure (SMILES): CCN=C(N)Nc1cccc(CN(C)C)c1.Cl.Cl [Example 374, N-(3-(N′-ethylguanidino)phenylmethyl)dimethylamine dihydrochloride]
- IC50 (N-cNOS (Type 1) [1]): 77.1 nM
- Ratio of IC50 values E-cNOS/N-cNOS (N-cNOS (Type 1) [2]): 16.7

Structure (SMILES): CCN=C(N)Nc1cccc(CNC)c1.Cl.Cl [Example 376, N-(3-(N′-ethylguanidino)phenylmethyl)methylamine dihydrochloride]
- IC50 (N-cNOS (Type 1) [1]): 21.3 nM
- Ratio of IC50 values E-cNOS/N-cNOS (N-cNOS (Type 1) [2]): 15.9

Structure (SMILES): CCSC(=N)Nc1cccc(CNC)c1C.Cl.Cl [Example 411, N-(3-(S-ethylisothioureido)-2-methylphenylmethyl)methylamine dihydrochloride]
- IC50 (N-cNOS (Type 1) [1]): 5.9 nM
- Ratio of IC50 values E-cNOS/N-cNOS (N-cNOS (Type 1) [2]): 57.8

Structure (SMILES): CCSC(=N)Nc1ccc(NCc2ccccc2)c(CN)c1.Cl.Cl.Cl [Example 438, N-(2-benzylamino-5-(S-ethylisothioureido)phenylmethyl)amine trihydrochloride]
- IC50 (N-cNOS (Type 1) [1]): 41.3 nM
- selectivity for N-cNOS compared to E-cNOS, compared with the existing NOS inhibitors (L-EIN) (N-cNOS (Type 1) [2]): more selective inhibitory effect on N-cNOS than L-EIN
- Ratio of IC50 values E-cNOS/N-cNOS (N-cNOS (Type 1) [2]): 168.2

Structure (SMILES): CCSC(=N)Nc1ccc(NC)c(CN)c1.Cl.Cl.Cl [Example 452, N-(5-(S-ethylisothioureido)-2-methylaminophenylmethyl)amine trihydrochloride]
- IC50 (N-cNOS (Type 1) [1]): 6.4 nM
- selectivity for N-cNOS compared to E-cNOS, compared with the existing NOS inhibitors (L-EIN) (N-cNOS (Type 1) [2]): more selective inhibitory effect on N-cNOS than L-EIN
- Ratio of IC50 values E-cNOS/N-cNOS (N-cNOS (Type 1) [2]): 567.5
- Ratio of IC50 values iNOS/N-cNOS (N-cNOS (Type 1) [2]): 1088.0

Structure (SMILES): CCNc1ccc(NC(=N)SCC)cc1CN(C(=O)OC(C)(C)C)C(=O)OC(C)(C)C [Example 458, N-(2-ethylamino-5-(S-ethylisothioureido)phenylmethyl)iminodicarboxylic acid di-t-butyl ester]
- IC50 (N-cNOS (Type 1) [1]): 8.4 nM
- selectivity for N-cNOS compared to E-cNOS, compared with the existing NOS inhibitors (L-EIN) (N-cNOS (Type 1) [2]): more selective inhibitory effect on N-cNOS than L-EIN
- Ratio of IC50 values E-cNOS/N-cNOS (N-cNOS (Type 1) [2]): 488.2

Structure (SMILES): CCN=C(N)Nc1ccc(CCN)cc1.Cl.Cl [Example 528, N-(2-(4-(N′-ethylguanidino)phenyl)ethyl)amine dihydrochloride]
- IC50 (N-cNOS (Type 1) [1]): 22.8 nM
- Ratio of IC50 values E-cNOS/N-cNOS (N-cNOS (Type 1) [2]): 19.1

Structure (SMILES): CCN=C(N)Nc1cccc(CN)c1C.Cl.Cl [Example 533, N-(3-(N′-ethylguanidino)-2-methylphenylmethyl)amine dihydrochloride]
- IC50 (N-cNOS (Type 1) [1]): 46.1 nM
- Ratio of IC50 values E-cNOS/N-cNOS (N-cNOS (Type 1) [2]): 81.8

Structure (SMILES): CCN=C(N)Nc1cccc(CN)c1Cl.Cl.Cl [Example 538, N-(2-chloro-3-(N′-ethylguanidino)phenylmethyl)amine dihydrochloride]
- IC50 (N-cNOS (Type 1) [1]): 24.4 nM
- selectivity for N-cNOS compared to E-cNOS, compared with the existing NOS inhibitors (L-EIN) (N-cNOS (Type 1) [2]): more selective inhibitory effect on N-cNOS than L-EIN
- Ratio of IC50 values E-cNOS/N-cNOS (N-cNOS (Type 1) [2]): 104.2
- Ratio of IC50 values iNOS/N-cNOS (N-cNOS (Type 1) [2]): 12.5

Structure (SMILES): CCN=C(N)Nc1cccc(CCN)c1.Cl.Cl [Example 543, N-(3-(N′-ethylguanidino)phenylethyl)amine dihydrochloride]
- IC50 (N-cNOS (Type 1) [1]): 95 nM
- Ratio of IC50 values E-cNOS/N-cNOS (N-cNOS (Type 1) [2]): 32.8

Counter-ions that a name gives are not always drawn.
